Measurements: article PMC4336329 (PLoS ONE, 2015)
About 14,000 (4.5%) of roughly 310,000 compounds showed an effect of 50% or more. Effects have a minus sign here. The list shows a part of the results.
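Further: peak tail current of the secondary pulse compared with the same well before compound.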

These compounds were tested against human ether-à-go-go-related gene (hERG) potassium channel (human, UniProt Q12809) (assay: primary screen, population patch clamp on CHO cells stably expressing hERG).
Chain of human ether-à-go-go-related gene (hERG) potassium channel (Q12809 whole entry, looked up): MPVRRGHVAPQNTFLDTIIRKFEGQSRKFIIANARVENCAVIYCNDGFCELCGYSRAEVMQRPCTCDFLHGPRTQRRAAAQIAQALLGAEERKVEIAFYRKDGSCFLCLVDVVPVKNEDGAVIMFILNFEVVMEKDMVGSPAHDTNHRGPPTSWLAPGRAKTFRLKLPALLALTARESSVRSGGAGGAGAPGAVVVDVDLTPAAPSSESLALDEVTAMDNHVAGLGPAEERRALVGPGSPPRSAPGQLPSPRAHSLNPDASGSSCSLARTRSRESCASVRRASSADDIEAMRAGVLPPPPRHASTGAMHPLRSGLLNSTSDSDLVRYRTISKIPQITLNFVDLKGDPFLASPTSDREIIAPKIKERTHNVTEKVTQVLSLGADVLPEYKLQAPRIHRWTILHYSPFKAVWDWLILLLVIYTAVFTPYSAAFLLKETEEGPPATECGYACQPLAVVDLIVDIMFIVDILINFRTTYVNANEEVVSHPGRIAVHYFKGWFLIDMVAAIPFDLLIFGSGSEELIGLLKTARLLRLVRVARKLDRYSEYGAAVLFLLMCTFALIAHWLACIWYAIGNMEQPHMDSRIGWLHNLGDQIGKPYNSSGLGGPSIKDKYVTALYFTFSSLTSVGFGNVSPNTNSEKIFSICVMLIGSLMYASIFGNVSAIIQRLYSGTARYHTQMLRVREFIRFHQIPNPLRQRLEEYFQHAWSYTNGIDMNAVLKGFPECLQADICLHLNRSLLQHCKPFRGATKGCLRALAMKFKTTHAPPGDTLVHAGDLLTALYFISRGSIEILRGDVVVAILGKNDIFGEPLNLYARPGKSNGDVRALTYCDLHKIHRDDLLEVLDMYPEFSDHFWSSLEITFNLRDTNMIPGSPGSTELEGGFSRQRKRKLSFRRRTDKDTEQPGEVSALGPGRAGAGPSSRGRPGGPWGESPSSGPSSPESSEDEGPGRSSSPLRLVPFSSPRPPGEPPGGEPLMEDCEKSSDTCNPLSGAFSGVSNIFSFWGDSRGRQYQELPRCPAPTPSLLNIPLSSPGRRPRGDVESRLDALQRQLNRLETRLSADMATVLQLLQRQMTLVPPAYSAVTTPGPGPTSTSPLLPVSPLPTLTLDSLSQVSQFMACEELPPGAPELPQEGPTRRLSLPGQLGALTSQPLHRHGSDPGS
With `Cc1ccc(-n2ncc3c(=O)n(CC(=O)N4CCN(c5ccccc5)CC4)cnc32)cc1` the “hERG current change (%, negative = inhibition) at 10uM” value was -6.01%. For `CCCCN(C)C(=O)C1CCN(Cc2ccc(OCc3ccccc3)cc2)CC1.O=C(O)C(=O)O`, the “hERG current change (%, negative = inhibition) at 10uM” value was -73.4%. With `N#Cc1cccc(NC(=O)COC(=O)C2CCC2)c1` the “hERG current change (%, negative = inhibition) at 10uM” value was 23.2%. In the case of `CCOC(CCn1ccc(O)c(Cc2ccc(Cl)cc2)c1=O)OCC`, the “hERG current change (%, negative = inhibition) at 10uM” value is reported as 8.78%. With `Nc1nonc1-n1nnc(C(=O)N/N=C/c2cccnc2)c1CSC1=NCCS1` the “hERG current change (%, negative = inhibition) at 10uM” value was 3.21%. With `COc1cccc(C(=O)Nc2cnc(NC(=O)c3ccco3)cc2C)c1` the “hERG current change (%, negative = inhibition) at 10uM” value was -14.3%. With `O=S(=O)(Nc1cccnc1)c1cccc(Cl)c1` the “hERG current change (%, negative = inhibition) at 10uM” value was -6.62%. In the case of `C[C@]1(C(=O)NCCCNc2ncc(C(F)(F)F)cc2Cl)C=C[C@@H](Cc2ccccc2)N1C(=O)c1ccccc1`, the “hERG current change (%, negative = inhibition) at 10uM” value is reported as 7.01%. In the case of `COc1cccc2c1O/C(=N\O)C(C(=O)Nc1cccc(C)c1C)C2` (centres unmarked), the “hERG current change (%, negative = inhibition) at 10uM” value is reported as 9.04%. In the case of `O=C(Nc1cccnc1)c1ccc(Cl)c(Cl)c1`, the “hERG current change (%, negative = inhibition) at 10uM” value is reported as 10.3%. In the case of `O=C(CSc1nnc(CNC(=O)c2cccs2)o1)c1ccc(Cl)cc1`, the “hERG current change (%, negative = inhibition) at 10uM” value is reported as -17.5%. For `O=C(O)CSc1nnc(-c2ccncc2)n1Cc1ccccc1`, the “hERG current change (%, negative = inhibition) at 10uM” value was 10.3%. In the case of `CCCOc1ccc(C(=O)NCc2ccco2)cc1`, the “hERG current change (%, negative = inhibition) at 10uM” value is reported as 8.99%. `COc1ccccc1Cn1c(=O)[nH]c2cccnc21` was tested, and the “hERG current change (%, negative = inhibition) at 10uM” value was 11.2%. In the case of `Cc1c(NC(=O)CN(c2ccc(F)cc2)S(=O)(=O)c2ccccc2)c(=O)n(-c2ccccc2)n1C`, the “hERG current change (%, negative = inhibition) at 10uM” value is reported as -0.664%. In the case of `NCCc1ccc(S(N)(=O)=O)cc1`, the “hERG current change (%, negative = inhibition) at 10uM” value is reported as 18.3%. For `O=C(CCN1CCN(C(c2ccccc2)c2ccccc2)CC1)N/N=C/c1ccc(O)cc1O`, the “hERG current change (%, negative = inhibition) at 10uM” value was -53.1%. For `O=C(O)C1CCCCC1C(=O)NC1CCCCC1` (centres unmarked), the “hERG current change (%, negative = inhibition) at 10uM” value was 1.54%. With `O=C(Nc1cccc(C(=O)O)c1)/C(=C\c1ccco1)NC(=O)c1ccccc1Cl` the “hERG current change (%, negative = inhibition) at 10uM” value was 7.53%. `O=C(Cc1ccc(F)cc1)Nc1nnc(SCC(=O)NC2CCCC2)s1` was tested, and the “hERG current change (%, negative = inhibition) at 10uM” value was 1.56%. In the case of `Cc1ccc(-c2[nH]c3ccccc3c2SCCNC(=O)c2ccc(S(=O)(=O)N3CCOCC3)cc2)cc1`, the “hERG current change (%, negative = inhibition) at 10uM” value is reported as 19.2%. `COc1ccc(C(CNC(=O)COc2ccccc2C)N2CCCC2)cc1` (centres unmarked) was tested, and the “hERG current change (%, negative = inhibition) at 10uM” value was -40.8%. For `Cc1cc(=O)oc2cc(OCC(=O)OCC(=O)NC(C)C)ccc12`, the “hERG current change (%, negative = inhibition) at 10uM” value was 11.2%. `COc1ccc(OCC(O)CNC(=O)Nc2cccc3ccccc23)cc1` (centres unmarked) was tested, and the “hERG current change (%, negative = inhibition) at 10uM” value was 7.58%. In the case of `Cc1ccc(NN=C2C(=O)OC(C)(C)OC2=O)c(C)c1`, the “hERG current change (%, negative = inhibition) at 10uM” value is reported as 5.02%. In the case of `COc1ccc(OC)c(N/C(=N/C(=S)Nc2ccccc2)Nc2nc(C)cc(C)n2)c1`, the “hERG current change (%, negative = inhibition) at 10uM” value is reported as 8.65%. `CCN(CC)CCNC(=O)c1cc(-c2ccco2)nc2ccccc12.Cl` was tested, and the “hERG current change (%, negative = inhibition) at 10uM” value was -65.5%. For `Cc1cc(=O)[nH]c(SCc2cc(Cl)ccc2OC(F)F)n1`, the “hERG current change (%, negative = inhibition) at 10uM” value was 11.2%. With `CC1CCCC(NC(=O)CSc2ccc(F)cc2)C1C` (centres unmarked) the “hERG current change (%, negative = inhibition) at 10uM” value was 18.7%. With `CCN(CC1COc2ccccc2O1)C(=S)NCCCN(C)C` (centres unmarked) the “hERG current change (%, negative = inhibition) at 10uM” value was -37.6%. For `COc1cc(NC(=O)c2ccccc2F)ccc1NC(=O)c1ccccc1Cl`, the “hERG current change (%, negative = inhibition) at 10uM” value was 0.592%. In the case of `O=C(NCc1ccccc1Cl)C(=O)NCC(c1ccco1)N1CCOCC1` (centres unmarked), the “hERG current change (%, negative = inhibition) at 10uM” value is reported as -8.45%. For `Cc1ccccc1OCc1nnc(SCC(=O)NCc2ccco2)n1C`, the “hERG current change (%, negative = inhibition) at 10uM” value was -2.56%. `CCCCOC(=O)NCN1C(=O)C2C3C=CC(C3)C2C1=O` (centres unmarked) was tested, and the “hERG current change (%, negative = inhibition) at 10uM” value was -5.04%. In the case of `CCN(CC)c1ccc(C=Nc2cc(C)cc(C)c2)c(O)c1`, the “hERG current change (%, negative = inhibition) at 10uM” value is reported as 21.8%. `O=C(CN1CCN(c2ccccn2)CC1)Nc1ccc([N+](=O)[O-])cc1C(=O)Nc1ccccc1F` was tested, and the “hERG current change (%, negative = inhibition) at 10uM” value was -34.7%. With `Cc1nc(NC(=O)CCC(=O)O)sc1C(=O)N(C)C` the “hERG current change (%, negative = inhibition) at 10uM” value was 23.2%. With `COc1cc(OC)cc(C(=O)NCC(=O)OCc2ccc(Cl)c(Cl)c2)c1` the “hERG current change (%, negative = inhibition) at 10uM” value was -8.82%. With `CCOC(=O)C1(CCCc2ccccc2)CCN(C(=O)C2CCCN(C(N)=O)C2)CC1` (centres unmarked) the “hERG current change (%, negative = inhibition) at 10uM” value was -72.4%. For `COc1ccc(-c2ccccc2NC(=O)C2CCCN(Cc3ccco3)C2)cc1` (centres unmarked), the “hERG current change (%, negative = inhibition) at 10uM” value was -46.3%. For `CCOc1ccc(NC(=O)CCN2CCN(c3ccccc3)CC2)cc1`, the “hERG current change (%, negative = inhibition) at 10uM” value was -33%. `CC(C)N1CCC(=NNC(=O)c2ccccc2[N+](=O)[O-])CC1` was tested, and the “hERG current change (%, negative = inhibition) at 10uM” value was -4.84%. In the case of `CC(C)Cc1nnc(NC(=O)Nc2ccccc2)s1`, the “hERG current change (%, negative = inhibition) at 10uM” value is reported as 39%. With `CCC(C(=O)NCc1ccco1)N(C(=O)CNS(=O)(=O)c1ccc(F)cc1)c1ccccc1F` (centres unmarked) the “hERG current change (%, negative = inhibition) at 10uM” value was -5.69%. For `Cc1nc(SC(C(=O)c2ccccc2)c2ccccc2)n[nH]1` (centres unmarked), the “hERG current change (%, negative = inhibition) at 10uM” value was 12.8%. With `Cc1sc2nc(C)n(/N=C/c3ccccc3O)c(=O)c2c1C` the “hERG current change (%, negative = inhibition) at 10uM” value was -7.37%. In the case of `COc1ccc(CNC(=O)CSc2nc3ccc(OC)cc3[nH]2)cc1`, the “hERG current change (%, negative = inhibition) at 10uM” value is reported as -2.87%. For `COC(=O)c1c(C)[nH]c(C(=O)C(Cc2ccccc2)N(C)C)c1C` (centres unmarked), the “hERG current change (%, negative = inhibition) at 10uM” value was -17.4%. `CN1CCc2c(sc3c2C(=O)NC(c2ccccn2)N3)C1` (centres unmarked) was tested, and the “hERG current change (%, negative = inhibition) at 10uM” value was -1.35%. `CCc1c(C)nc2cc(-c3cc(OC)cc(OC)c3)nn2c1N1CCCC1` was tested, and the “hERG current change (%, negative = inhibition) at 10uM” value was -2.11%. For `CC1C(c2ccccc2)N(C)C(c2ccccc2)CC1(O)c1ccc(F)cc1` (centres unmarked), the “hERG current change (%, negative = inhibition) at 10uM” value was 4.48%. With `COC(=O)c1ccc(NC(=O)C(=O)c2c[nH]c3ccccc23)cc1` the “hERG current change (%, negative = inhibition) at 10uM” value was 9.8%. With `O=C(CN(C1CCCCC1)S(=O)(=O)c1ccc(F)cc1)NCc1ccncc1` the “hERG current change (%, negative = inhibition) at 10uM” value was -41.9%. `COc1ccc(S(=O)(=O)N2CCCCC2)cc1NC(=O)c1ccc([N+](=O)[O-])o1` was tested, and the “hERG current change (%, negative = inhibition) at 10uM” value was -2.81%. In the case of `O=C(O)COc1ccccc1/C=N/NC(=O)C(O)c1ccccc1` (centres unmarked), the “hERG current change (%, negative = inhibition) at 10uM” value is reported as 10.4%. In the case of `CCOc1ccc(NC(=O)Cc2ccc(NC3=NC4CS(=O)(=O)CC4S3)cc2)cc1` (centres unmarked), the “hERG current change (%, negative = inhibition) at 10uM” value is reported as 4.87%.
